# Over roughly 33,000 sequences, “E-score (dimensionless, -0.5 to 0.5)” has its median near -0.058; the highest 2% begin near 0.35. The list shows a part of the results.
# Tested on: MvaT
# Experiment: PBM 8-mer E-score (mean of HK and ME arrays) (E-score (dimensionless, -0.5 to 0.5)); higher = stronger relative binding preference; most listed sequences are background and not binding sites
# Procedure, shortened: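 Full-length P. aeruginosa MvaT carrying an N-terminal glutathione S-transferase tag was tested by protein binding microarray following a previously described protocol. Two universal double-stranded 60-mer arrays, ME and HK, were used, each with a constant 25-mer primer region and a variable 35-mer region covering all 8-mers. The rank-based E-score is the mean of the two arrays, parsed with a custom script. Its range runs from -0.5 to 0.5 for each 8-mer.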
row,Sequence,PBM 8-mer E-score
1,GACTTCTC,-0.00638
2,CATTGTCA,0.0168
3,TGCACCCA,-0.0225
4,CCAACCCC,-0.325
5,ACCATTAC,0.17
6,CAACGTGG,-0.235
7,ATTCACTA,0.168
8,GAGCGGAC,-0.17
9,TATATCGA,0.324
10,CTCGCGTA,-0.00329
11,GATGTGGC,-0.0862
12,GTGTACCA,-0.141
13,CCAGGACC,-0.27
14,TGCCTACA,-0.13
15,ACTAGGGG,-0.2
16,AATGTAAA,0.314
17,GTGGTTAA,0.0836
18,GCGGGGAC,-0.306
19,AGGTATAA,0.291
20,CGTCGTGC,-0.249
21,CCGGAATA,0.259
22,GTTAAGCA,0.0863

row,Sequence,PBM 8-mer E-score
1,GCAGACAC,-0.0644
2,ATCAAATG,0.0685
3,GTTAGCTA,-0.0646
4,CGGCATGC,-0.0979
5,AGAATGCA,-0.0318
6,AGCTAGAT,-0.0463
7,ATAGGAGA,-0.0113
8,GGCCGTAA,-0.107
9,TAGGTTCA,-0.101
10,CCCCTTGA,-0.176
11,ATCCACAC,0.0527
12,TACTTCCA,0.17
13,AAGTGTCG,0.172
14,CGTCGGTC,-0.148
15,GATGATCA,-0.0834
16,GCCATACA,0.0801
17,ACTAATCG,0.0335
18,CGCGCTAG,-0.273
19,GAGCACGA,-0.273
20,AGACCTGC,-0.221
21,AACCGAAA,0.0688
22,AAGACTTA,0.138

row,Sequence,PBM 8-mer E-score
1,AGTCTGCC,-0.278
2,CCCCCAGC,-0.259
3,CATACCGA,-0.0927
4,GGTCCCAA,-0.103
5,CGACTGGA,-0.161
6,GGCCTTAA,0.107
7,TCTGCCAA,-0.0279
8,AAGCAGGA,-0.19
9,CCATATGG,0.0147
10,CTGAGTCA,-0.205
11,AACCAAGT,0.168
12,ATGTGACC,-0.154
13,ATGAGAGA,-0.122
14,GGGCTGTA,-0.144
15,TACCGGTA,0.0709
16,AGACGATA,0.063
17,AATGCGGA,-0.206
18,ACCTAGTA,0.0298
19,AAGATAAG,0.148
20,CACGGCGG,-0.131
21,CTATACGA,-0.0707
22,ACCTATCA,-0.127

row,Sequence,PBM 8-mer E-score
1,ATATGCTC,0.128
2,ATACGCAT,-0.109
3,TTCTGCAA,0.105
4,AGATCGTG,-0.0847
5,AAGGCCCA,-0.199
6,CACGCATG,-0.172
7,CCTGGTCA,-0.2
8,AATCATCT,-0.117
9,GCGCTCAA,-0.14
10,CACCCTAA,-0.0705
11,ACAGTTCA,0.0268
12,GGATGGAC,-0.327
13,CATTCTGA,-0.0574
14,GAACGATC,-0.251
15,TCACTGGA,-0.00201
16,CTACCCGC,-0.143
17,CCTCCCGA,-0.214
18,GTCTGTAA,-0.026
19,ATCACTGC,-0.146
20,CGCCTCCA,-0.236

# Source: the supplement of paper PMC4466236
